Experimental data from the BET-seq Pho4 binding data (Le et al. 2018).
The list shows a part of the results. These are noisy estimates, calculated here from bound and input reads.

Molecular target: T1, Pho4 (S. cerevisiae) (UniProt P07270)
T1 sequence: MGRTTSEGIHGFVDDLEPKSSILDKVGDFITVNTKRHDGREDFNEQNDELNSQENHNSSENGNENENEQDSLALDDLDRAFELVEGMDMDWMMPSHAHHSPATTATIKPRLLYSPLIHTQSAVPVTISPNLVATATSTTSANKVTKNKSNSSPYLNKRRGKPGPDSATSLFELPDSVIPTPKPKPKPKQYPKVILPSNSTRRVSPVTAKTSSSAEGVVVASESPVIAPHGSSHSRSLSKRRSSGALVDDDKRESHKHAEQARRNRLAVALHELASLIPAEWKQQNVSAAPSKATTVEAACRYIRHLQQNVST
Test: relative binding free energy (BET-seq); higher = weaker binding
Settings: reference: library average

Relative binding free energy, 0.47 kcal/mol:
GTGGTCACGTGAGTCA

Relative binding free energy, 0.23 kcal/mol:
AAAATCACGTGTATTG
GGTTACACGTGCTGAA

Relative binding free energy, -0.19 kcal/mol:
TATAGCACGTGTTCTG

Relative binding free energy, -0.1 kcal/mol:
TTGTACACGTGGTGCG
GGGAGCACGTGTGTTA
AGCGGCACGTGTTTGA

Relative binding free energy, -0.3 kcal/mol:
TGTCCCACGTGGGGTT

Relative binding free energy, 0.28 kcal/mol:
AGTTTCACGTGGTTGG
GTATTCACGTGTTTTT
CGGTTCACGTGTCAGT

Relative binding free energy, 0.22 kcal/mol:
TGTTGCACGTGAAAAG
CTGGACACGTGAGGTA
TGGATCACGTGTATGT
GCGTTCACGTGTTATG

Relative binding free energy, -0.08 kcal/mol:
ATGTCCACGTGTTGTG
TGAGGCACGTGTTGAT
TTTGACACGTGCGGTT
GTTACCACGTGGTTAG

Relative binding free energy, 0.27 kcal/mol:
ATGTTCACGTGTTGCG
GGGCTCACGTGGTGTT
GTGTCCACGTGATGGA

Relative binding free energy, -0.12 kcal/mol:
TTACGCACGTGGATGG

Relative binding free energy, 0.42 kcal/mol:
TTACTCACGTGATGTT

Relative binding free energy, 0.04 kcal/mol:
ACGGACACGTGGGTTT
GTGAACACGTGTTGGT
TGAGGCACGTGAATGG

Relative binding free energy, 0.34 kcal/mol:
TGATTCACGTGATGCT

Relative binding free energy, -0.2 kcal/mol:
TGACGCACGTGTTGAG

Relative binding free energy, 0.15 kcal/mol:
GGTGTCACGTGACGTA
GGTTGCACGTGTAGCA
ATAGGCACGTGTAATA
TTTGTCACGTGGATTT

Relative binding free energy, -0.05 kcal/mol:
ACTCGCACGTGTGGGT
ATATACACGTGGTCTG
ATTGCCACGTGGAGTT
AGGTGCACGTGGTTTA
TGCAACACGTGGTGTG
GGTCACACGTGGGTAG

Relative binding free energy, -0.15 kcal/mol:
AGCGGCACGTGCGGGA

Relative binding free energy, 0.3 kcal/mol:
TTGAACACGTGAGTTA

Relative binding free energy, 0.41 kcal/mol:
GCGTTCACGTGAGGAG

Relative binding free energy, 0.33 kcal/mol:
GTTGACACGTGTGATT
ATTTTCACGTGGTGGT
TTGATCACGTGAGAAT

Relative binding free energy, 0.38 kcal/mol:
TTGGTCACGTGAGGTC
TGATTCACGTGGAATG

Relative binding free energy, -0.11 kcal/mol:
TCGGGCACGTGGGTTT
GTTATCACGTGGGGCA
AATGACACGTGGGGGT
GATGGCACGTGGTAGT
GGGCGCACGTGGGGGG

Relative binding free energy, -0.14 kcal/mol:
CAGCACACGTGGGGGG
GGGTCCACGTGGCGTG
CTGAACACGTGGGGTT

Relative binding free energy, -0.21 kcal/mol:
ATGACCACGTGGTGGG
TTGGGCACGTGCTCAG
ACGTACACGTGGGAGG
TTTGGCACGTGCTCGT

Relative binding free energy, 0.1 kcal/mol:
AGCGACACGTGTAGGT
ACTAGCACGTGAGTGG
TGTCTCACGTGCGTAT
GTTTACACGTGCGTGC
TGAAACACGTGTAAGG

Relative binding free energy, 0.17 kcal/mol:
TTGCACACGTGATGTA
AAATTCACGTGGTTAA
ATTTTCACGTGGGGTG

Relative binding free energy, 0.09 kcal/mol:
ATGAACACGTGTGATG
ATATTCACGTGTTATA
GTGATCACGTGGGTGG

Relative binding free energy, 0.24 kcal/mol:
GCTAGCACGTGAAGGT
ATTAGCACGTGAGAAT
CGGTGCACGTGATTTT
TGCTGCACGTGATTGG
GGTGTCACGTGAGGAA
GTCATCACGTGTAGGC
TTCGTCACGTGATAAG
GCTTTCACGTGGTGTA
GTCGTCACGTGTCAGT
TCTTGCACGTGAGGTC

Relative binding free energy, 0.14 kcal/mol:
TTTGTCACGTGTGAGC
TTCAACACGTGTAGTT
TCTATCACGTGTGTTT
TTGCCCACGTGAGGTG

Relative binding free energy, 0.32 kcal/mol:
TTTTGCACGTGAGGTG

Relative binding free energy, -0.17 kcal/mol:
TTACGCACGTGTGTGA
GATGGCACGTGGTGTG
AAGGGCACGTGTGTAC

Relative binding free energy, 0.16 kcal/mol:
CTTGTCACGTGTAAGG
ATGGGCACGTGAGAGA
AGATCCACGTGTGGCG

Relative binding free energy, -0.06 kcal/mol:
GAGGGCACGTGCCGTG
CGGTGCACGTGCTGTG
TGACGCACGTGATGTG
AGTAGCACGTGTCTTG

Relative binding free energy, -0.28 kcal/mol:
TAGGGCACGTGGGGGT
TGTCACACGTGGGGCT

Relative binding free energy, 0.37 kcal/mol:
TGTTTCACGTGTAAAG
TTGTGCACGTGAGAAC
GAGTGCACGTGAAGTT

Relative binding free energy, -0.16 kcal/mol:
CTAGGCACGTGGGCCG
TTTGCCACGTGGAAGG
CTTGCCACGTGTGTTG

Relative binding free energy, 0.08 kcal/mol:
TTGGTCACGTGGGATA
ATGTACACGTGGATCT
AAGTGCACGTGCAGGT
GAAATCACGTGTTGTT

Relative binding free energy, 0.07 kcal/mol:
TGGGTCACGTGCCGTT
ATTTCCACGTGTTAAT
GTAAGCACGTGAGTGT
TTTTCCACGTGCGGGG
TGTAACACGTGCAGTT

Relative binding free energy, 0.18 kcal/mol:
GGCGTCACGTGTTCGG
GTATTCACGTGTATAT
TTGAGCACGTGAGAAT
TCTTGCACGTGTGTTT
GTTATCACGTGCGATG
AATGTCACGTGTTTTT
GGTTTCACGTGTTACA

Relative binding free energy, 0.53 kcal/mol:
GGGATCACGTGAATGA

Relative binding free energy, -0.02 kcal/mol:
AGGTGCACGTGTACTT
GGGAACACGTGTGCGG
AGTTGCACGTGGGATT
GGTAACACGTGGGTTC
AATATCACGTGGGGCA

Relative binding free energy, 0.48 kcal/mol:
TGTTTCACGTGGAAAC

Relative binding free energy, 0.12 kcal/mol:
CTTTTCACGTGGGATT
GGAAGCACGTGAGCGG
ATGTTCACGTGGTCTA
AGGGTCACGTGTTTAG
TATTCCACGTGTTAAT
GAGGTCACGTGTGCGC

Relative binding free energy, -0.31 kcal/mol:
ACGCGCACGTGGGGAG

Relative binding free energy, 0.31 kcal/mol:
TGCATCACGTGATGGT
GTGGTCACGTGAGGGC

Relative binding free energy, 0.25 kcal/mol:
GCTGTCACGTGTGTAG
CGTTTCACGTGGGATT

Relative binding free energy, 0.06 kcal/mol:
AGAGACACGTGGGAAT
GTGGCCACGTGAGGGG
TTTTACACGTGGGTGA
CGGTGCACGTGTGGGT
TTGTCCACGTGGGTTC

Relative binding free energy, -0.03 kcal/mol:
TTTACCACGTGTGGGA
GAGGACACGTGTATTG
GGCACCACGTGTGTGG
TTGTGCACGTGCTGAG
CGTTGCACGTGGAGTA
GGTCGCACGTGTTGGA
GGTAACACGTGTTGCG
GGATGCACGTGGCATT

Relative binding free energy, -0.18 kcal/mol:
CTGAGCACGTGTCGGG
TGCTGCACGTGGTTAG
GTTCCCACGTGGGTTG

Relative binding free energy, 0.13 kcal/mol:
TGGTGCACGTGATGGT
GGAGTCACGTGCAGTA
GGTGCCACGTGAAGTG
TGTGACACGTGAGGCG
ATTATCACGTGTTAAT
AGAAGCACGTGAGGTA
TTCGTCACGTGACGGT
TCTTGCACGTGTAATG

Relative binding free energy, 0.19 kcal/mol:
TTGGTCACGTGGATTA
TGTTACACGTGATCTA

Relative binding free energy, -0.09 kcal/mol:
TGGGCCACGTGGGACG
GGAGCCACGTGTTGTT
AGTTGCACGTGGGCAG

Relative binding free energy, 0.45 kcal/mol:
CGATTCACGTGAAGGT

Relative binding free energy, 0.2 kcal/mol:
ATTGTCACGTGGGAAC
TGTTACACGTGATAAA
GGGTACACGTGGAAAG
GGGATCACGTGTGGTA
GGGTGCACGTGATTAA

Relative binding free energy, -0.07 kcal/mol:
TATTGCACGTGGTTGT

Relative binding free energy, 0.21 kcal/mol:
GGGATCACGTGCAATG
TCGTGCACGTGAATGG
GAATGCACGTGTAGAG
TGAGTCACGTGTAACT

Relative binding free energy, -0.25 kcal/mol:
TTCAGCACGTGGGCTG
AAGGGCACGTGTGTCG
ATGTCCACGTGGGGGG

Relative binding free energy, 0.11 kcal/mol:
TTTTACACGTGATGAT
TTCGTCACGTGTGGTT
ATTAGCACGTGTGGAT
AGTAGCACGTGATGAT
AGGCGCACGTGAGGTT

Relative binding free energy, -0.26 kcal/mol:
TATGGCACGTGGGAGC

Relative binding free energy, 0.02 kcal/mol:
GGAGACACGTGTTGTT
ATCGACACGTGGGAGT
TCGAGCACGTGTGGAT
GTAGACACGTGTGTAA

Relative binding free energy, 0.35 kcal/mol:
TACTTCACGTGGAATG
TGGTTCACGTGGTTGG
TTATTCACGTGTCGGG

Relative binding free energy, 0.39 kcal/mol:
GAGTTCACGTGAAGGG

Relative binding free energy, 0 kcal/mol:
GTCGTCACGTGTTGCT
GGGTGCACGTGTTTAG
TTAGGCACGTGGTAAG
TTCGTCACGTGTTTGC
CTCTGCACGTGTTTTG
ATTAGCACGTGGATGA
GAGACCACGTGTTGGG

Relative binding free energy, 0.03 kcal/mol:
AAAAACACGTGGAGGG
TAAGGCACGTGAGCTG
TTTAACACGTGACTGG
AGCATCACGTGGGGCT
GGGGACACGTGCTGGA
TGTGACACGTGTGCGG
GGTGTCACGTGGGAAG
TGTGTCACGTGTCGTC
CTGTGCACGTGAGGTT

Relative binding free energy, 0.4 kcal/mol:
GTGTACACGTGAATAT
GGTCTCACGTGATTGG

Relative binding free energy, -0.13 kcal/mol:
GGGTGCACGTGCACGG
GGATGCACGTGGAGTA
AAGTGCACGTGGGATG
ACGGGCACGTGGATGA

Relative binding free energy, -0.23 kcal/mol:
GGGCGCACGTGGTGTG

Relative binding free energy, 0.01 kcal/mol:
CGTGGCACGTGTGGTT
TATGTCACGTGTCCGT
ACGATCACGTGGTGTA
ATTTGCACGTGTTTTG
AAAGTCACGTGGGGTG
GTAGGCACGTGAGAAG

Relative binding free energy, 0.05 kcal/mol:
CGGTACACGTGTTTAG
GGGACCACGTGGATGT
TTCGCCACGTGTTGAG
AGGGACACGTGCTATT

Relative binding free energy, 0.26 kcal/mol:
GCCTTCACGTGGGGTA
GGCGACACGTGATGTG
GCGATCACGTGGTTGA
